Results on 19 molecules are retold here after the supplement of paper PMC10369915.

The list shows a part of the results. No stated cut-off is given here; in the data, active = 3.2 or more and inactive = the rest. Most of these values are background signal.
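Further: displayed peptides selected on beads carrying the immobilized SH2 domain, with library peptides lacking any tyrosine serving as negative controls.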

For one test, the target named is SHP2 C-SH2 domain E139D. Kind of test: enrichment score (SH2-bound / input frequency) (ratio); bacterial display of known human phosphotyrosine sites (pTyr-Var adds point mutants) read by sequencing; higher = stronger binding; tyrosines were phosphorylated by kinases first. As to conditions: peptide library: pTyr-Var.
For the molecule SVVVSYEPPEV [TP53_Y220_P219S], the enrichment score is inactive: 0.778.
Regarding SVVVPYEPPEA [TP53_Y220_V225A], the enrichment score is inactive: 0.669.
On the same count and under the same terms, the figure for SVVVPYEPREV [TP53_Y220_P223R] is inactive: 0.966; for SVVVPYEAPEV [TP53_Y220_P222A] it is inactive: 0.779; for SGVVPYEPPEV [TP53_Y220_V216G] it is inactive: 0.74.
Same read-out and setting: the figure for SVTCMYSPALN [TP53_Y126_T125M] is inactive: 0.733; for SVTCTYSSALN [TP53_Y126_P128S] it is inactive: 0.565; for CVVVPYEPPEV [TP53_Y220_S215C] it is inactive: 1.13.
SVTCTYSAALN [TP53_Y126_P128A]: the enrichment score is inactive: 0.584.
Same read-out and setting: next, TVVVPYEPPEV [TP53_Y220_S215T]: inactive: 1.1; SVVVPYEPPED [TP53_Y220_V225D]: inactive: 0.705; SVVVPCEPPEV [TP53_Y220_Y220C]: inactive: 0.817.
Same read-out and setting: next, SAVVPYEPPEV [TP53_Y220_V216A]: inactive: 0.813; SVVLPYEPPEV [TP53_Y220_V218L]: inactive: 1.19; SVVVCYEPPEV [TP53_Y220_P219C]: inactive: 0.818.
Take SVTCKYSPALN [TP53_Y126_T125K]: the enrichment score is inactive: 0.632.
SVVVPYEPPKV [TP53_Y220_E224K]: the enrichment score was inactive: 0.719.
On the same count and under the same terms, next, SLTCTYSPALN [TP53_Y126_V122L]: inactive: 1; SVVVPYELPEV [TP53_Y220_P222L]: inactive: 0.865.

In the next test the target is SHP2 C-SH2 domain wild-type. The test is described as above. As to conditions: peptide library: pTyr-Var.
Turning to SVVVSYEPPEV [TP53_Y220_P219S], the enrichment score is inactive: 0.733.
Still for that read-out and setting: the figure for SVVVPYEPPEA [TP53_Y220_V225A] is inactive: 0.601; for SVVVPYEPREV [TP53_Y220_P223R] it is inactive: 1.18; for SVVVPYEAPEV [TP53_Y220_P222A] it is inactive: 0.833.
In the case of SGVVPYEPPEV [TP53_Y220_V216G], the enrichment score is inactive: 0.551.
Still for that read-out and setting: the figure for SVTCMYSPALN [TP53_Y126_T125M] is inactive: 0.852.
Same read-out and setting: next, SVTCTYSSALN [TP53_Y126_P128S]: inactive: 0.74; CVVVPYEPPEV [TP53_Y220_S215C]: inactive: 1.39.
Consider SVTCTYSAALN [TP53_Y126_P128A], for which the enrichment score was inactive: 0.918.
Turning to TVVVPYEPPEV [TP53_Y220_S215T], the enrichment score is inactive: 1.02.
Turning to SVVVPYEPPED [TP53_Y220_V225D], the enrichment score was inactive: 0.653.
Same read-out and setting: the figure for SVVVPCEPPEV [TP53_Y220_Y220C] is inactive: 0.872; for SAVVPYEPPEV [TP53_Y220_V216A] it is inactive: 0.612; for SVVLPYEPPEV [TP53_Y220_V218L] it is inactive: 0.997.
Regarding SVVVCYEPPEV [TP53_Y220_P219C], the enrichment score is inactive: 0.926.
For SVTCKYSPALN [TP53_Y126_T125K], the enrichment score is inactive: 0.68.
In the case of SVVVPYEPPKV [TP53_Y220_E224K], the enrichment score was inactive: 0.839.
As to SLTCTYSPALN [TP53_Y126_V122L], the enrichment score was inactive: 1.36.
Turning to SVVVPYELPEV [TP53_Y220_P222L], the enrichment score is inactive: 0.807.

The next test deals with SHP2 N-SH2 domain L43F. Described as above. As to conditions: peptide library: pTyr-Var.
As to SVVVSYEPPEV [TP53_Y220_P219S], the enrichment score was inactive: 0.957.
For the molecule SVVVPYEPPEA [TP53_Y220_V225A], the enrichment score was inactive: 0.761.
Take SVVVPYEPREV [TP53_Y220_P223R]: the enrichment score is inactive: 1.24.
On the same count and under the same terms, next, SVVVPYEAPEV [TP53_Y220_P222A]: inactive: 0.977; SGVVPYEPPEV [TP53_Y220_V216G]: inactive: 0.724.
Still for that read-out and setting: next, SVTCMYSPALN [TP53_Y126_T125M]: inactive: 0.993.
Same read-out and setting: the figure for SVTCTYSSALN [TP53_Y126_P128S] is inactive: 0.643.
CVVVPYEPPEV [TP53_Y220_S215C]: the enrichment score is inactive: 0.914.
Same read-out and setting: the figure for SVTCTYSAALN [TP53_Y126_P128A] is inactive: 0.809; for TVVVPYEPPEV [TP53_Y220_S215T] it is inactive: 0.789; for SVVVPYEPPED [TP53_Y220_V225D] it is inactive: 0.792.
Turning to SVVVPCEPPEV [TP53_Y220_Y220C], the enrichment score was inactive: 0.931.
With SAVVPYEPPEV [TP53_Y220_V216A], the enrichment score was inactive: 0.792.
As to SVVLPYEPPEV [TP53_Y220_V218L], the enrichment score was inactive: 1.1.
Turning to SVVVCYEPPEV [TP53_Y220_P219C], the enrichment score was inactive: 0.786.
For the molecule SVTCKYSPALN [TP53_Y126_T125K], the enrichment score was inactive: 0.615.
In the case of SVVVPYEPPKV [TP53_Y220_E224K], the enrichment score is inactive: 0.749.
Regarding SLTCTYSPALN [TP53_Y126_V122L], the enrichment score was inactive: 1.
Take SVVVPYELPEV [TP53_Y220_P222L]: the enrichment score was inactive: 1.

A further test concerns the target SHP2 N-SH2 domain T42A. Described as above. Conditions: peptide library: pTyr-Var.
Take SVVVSYEPPEV [TP53_Y220_P219S]: the enrichment score is inactive: 0.745.
Still for that read-out and setting: the figure for SVVVPYEPPEA [TP53_Y220_V225A] is inactive: 0.573; for SVVVPYEPREV [TP53_Y220_P223R] it is inactive: 1.03.
Same read-out and setting: the figure for SVVVPYEAPEV [TP53_Y220_P222A] is inactive: 0.747; for SGVVPYEPPEV [TP53_Y220_V216G] it is inactive: 0.66; for SVTCMYSPALN [TP53_Y126_T125M] it is inactive: 0.897.
SVTCTYSSALN [TP53_Y126_P128S]: the enrichment score is inactive: 0.603.
Consider CVVVPYEPPEV [TP53_Y220_S215C], for which the enrichment score was inactive: 0.642.
Take SVTCTYSAALN [TP53_Y126_P128A]: the enrichment score is inactive: 0.712.
Still for that read-out and setting: next, TVVVPYEPPEV [TP53_Y220_S215T]: inactive: 0.567; SVVVPYEPPED [TP53_Y220_V225D]: inactive: 0.581.
For SVVVPCEPPEV [TP53_Y220_Y220C], the enrichment score is inactive: 0.931.
Still for that read-out and setting: the figure for SAVVPYEPPEV [TP53_Y220_V216A] is inactive: 0.606.
SVVLPYEPPEV [TP53_Y220_V218L]: the enrichment score was inactive: 0.831.
For SVVVCYEPPEV [TP53_Y220_P219C], the enrichment score is inactive: 0.725.
Turning to SVTCKYSPALN [TP53_Y126_T125K], the enrichment score is inactive: 0.477.
Still for that read-out and setting: the figure for SVVVPYEPPKV [TP53_Y220_E224K] is inactive: 0.621.
SLTCTYSPALN [TP53_Y126_V122L]: the enrichment score was inactive: 0.816.
The same measure, in the same setting: next, SVVVPYELPEV [TP53_Y220_P222L]: inactive: 0.835.

The target of the next test is SHP2 N-SH2 domain T52S. The description is as above. Conditions: peptide library: pTyr-Var.
For the molecule SVVVSYEPPEV [TP53_Y220_P219S], the enrichment score was inactive: 0.846.
The same measure, in the same setting: next, SVVVPYEPPEA [TP53_Y220_V225A]: inactive: 0.667; SVVVPYEPREV [TP53_Y220_P223R]: inactive: 1.04.
As to SVVVPYEAPEV [TP53_Y220_P222A], the enrichment score is inactive: 0.686.
With SGVVPYEPPEV [TP53_Y220_V216G], the enrichment score was inactive: 0.62.
For the molecule SVTCMYSPALN [TP53_Y126_T125M], the enrichment score is inactive: 0.915.
The same measure, in the same setting: next, SVTCTYSSALN [TP53_Y126_P128S]: inactive: 0.591; CVVVPYEPPEV [TP53_Y220_S215C]: inactive: 0.724; SVTCTYSAALN [TP53_Y126_P128A]: inactive: 0.673.
Same read-out and setting: next, TVVVPYEPPEV [TP53_Y220_S215T]: inactive: 1.
On the same count and under the same terms, the figure for SVVVPYEPPED [TP53_Y220_V225D] is inactive: 0.732.
As to SVVVPCEPPEV [TP53_Y220_Y220C], the enrichment score was inactive: 0.774.
On the same count and under the same terms, next, SAVVPYEPPEV [TP53_Y220_V216A]: inactive: 0.703; SVVLPYEPPEV [TP53_Y220_V218L]: inactive: 1.02.
Same read-out and setting: next, SVVVCYEPPEV [TP53_Y220_P219C]: inactive: 0.746.
Same read-out and setting: next, SVTCKYSPALN [TP53_Y126_T125K]: inactive: 0.543.
In the case of SVVVPYEPPKV [TP53_Y220_E224K], the enrichment score is inactive: 0.792.
Take SLTCTYSPALN [TP53_Y126_V122L]: the enrichment score is inactive: 0.841.
As for SVVVPYELPEV [TP53_Y220_P222L], the enrichment score was inactive: 1.01.

The next test has as its target SHP2 N-SH2 domain wild-type. The description is as above. As to conditions: peptide library: pTyr-Var.
Regarding SVVVSYEPPEV [TP53_Y220_P219S], the enrichment score is inactive: 0.851.
SVVVPYEPPEA [TP53_Y220_V225A]: the enrichment score was inactive: 0.718.
As for SVVVPYEPREV [TP53_Y220_P223R], the enrichment score was inactive: 1.03.
Turning to SVVVPYEAPEV [TP53_Y220_P222A], the enrichment score was inactive: 0.886.
For SGVVPYEPPEV [TP53_Y220_V216G], the enrichment score was inactive: 0.733.
In the case of SVTCMYSPALN [TP53_Y126_T125M], the enrichment score is inactive: 1.25.
For SVTCTYSSALN [TP53_Y126_P128S], the enrichment score was inactive: 0.798.
Same read-out and setting: the figure for CVVVPYEPPEV [TP53_Y220_S215C] is inactive: 1.37.
On to SVTCTYSAALN [TP53_Y126_P128A], for which the enrichment score is inactive: 0.957.
Same read-out and setting: the figure for TVVVPYEPPEV [TP53_Y220_S215T] is inactive: 0.849; for SVVVPYEPPED [TP53_Y220_V225D] it is inactive: 0.649.
On to SVVVPCEPPEV [TP53_Y220_Y220C], for which the enrichment score is inactive: 1.01.
Same read-out and setting: next, SAVVPYEPPEV [TP53_Y220_V216A]: inactive: 0.964.
As to SVVLPYEPPEV [TP53_Y220_V218L], the enrichment score is inactive: 1.09.
Still for that read-out and setting: the figure for SVVVCYEPPEV [TP53_Y220_P219C] is inactive: 0.899.
Same read-out and setting: next, SVTCKYSPALN [TP53_Y126_T125K]: inactive: 0.688.
Turning to SVVVPYEPPKV [TP53_Y220_E224K], the enrichment score is inactive: 0.77.
On to SLTCTYSPALN [TP53_Y126_V122L], for which the enrichment score was inactive: 1.74.
For SVVVPYELPEV [TP53_Y220_P222L], the enrichment score was inactive: 0.927.
